Each structure is given as a SMILES string. The list shows a part of the results. Further columns of the screen follow, without active or inactive calls. Most of these compounds were active or inconclusive in the main read-out, so they are no random draw.

The record followed here is PubChem BioAssay AID651582 (Sanford-Burnham Center for Chemical Genomics, 2012).

A short description of the experiment: inhibitors of triacylglycerol accumulation, primary screen, cell-based, uHTS, fluorescence, H9c2 (AID 651582). The conditions noted are these: H9c2 cells, Nile Red lipid (TAG) fluorescence; measured here:; at 12.5 µM; cells loaded with 200 µM oleic acid.
For `CCOc1ccc(OCc2ccc(C(=O)NN=Cc3ccc[nH]3)cc2)cc1`, the DAPI nuclei signal change (viability), lower = more cytotoxic is -41.5%. For the compound `O=c1c2c3nc4ccccc4nc3n(-c3ccc4c(c3)OCCO4)c2ncn1C1CCCC1`, the DAPI nuclei signal change (viability), lower = more cytotoxic was -26.9%. On to `C#CCOCCOCCOCCNc1nc(N2CCN(C(=O)CCCCCCCCCCNC(=O)[C@H](CCCCN)n3cc(C)nn3)CC2)nc(N2CCN(C(=O)CCCCCCCCCCNC(=O)[C@@H]([C@H](C)CC)n3cc(CCCCCN)nn3)CC2)n1`, for which the DAPI nuclei signal change (viability), lower = more cytotoxic was -39.4%. To `C[C@H](CO)N1C[C@H](C)[C@@H](CN(C)Cc2ccc(-c3ccccc3)cc2)Oc2c(NC(=O)Cc3ccccc3)cccc2C1=O` belongs -3.04%. For `O=C(CN(CC1CCCO1)S(=O)(=O)c1ccc(S(=O)(=O)NC2CC2)cc1)Nc1ccccc1` (stereo not given), the DAPI nuclei signal change (viability), lower = more cytotoxic is -1.45%. `CCCCCc1cc(=O)oc2c(C(CCN(CC)CC)c3ccc(OC)cc3)c(OC)cc(OC)c12` (stereo not given): the DAPI nuclei signal change (viability), lower = more cytotoxic is -10.2%. `CC(=O)Cn1ncc(Br)c(Br)c1=O`: the DAPI nuclei signal change (viability), lower = more cytotoxic is -28.1%.

On to `Cc1ccc(NCCN(C)C)c2c(=O)c3cc(O)ccc3sc12`, for which the DAPI nuclei signal change (viability), lower = more cytotoxic is -38.2%. Regarding `Cc1ccc(NC(=O)c2nc[nH]c2C(=O)NCCCCNC(=O)c2[nH]cnc2C(=O)Nc2ccc(C)cc2)cc1`, the DAPI nuclei signal change (viability), lower = more cytotoxic was -2.68%. Regarding `COc1ccc(CNC(=O)/C=C/c2ccc(OCCCF)cc2)cc1`, the DAPI nuclei signal change (viability), lower = more cytotoxic is -1.93%. In the case of `CCOC(=O)Cc1ccc(Nc2nc3cc(-c4sccc4C)sc3c(=O)n2C)cc1` it was -36.4%. Consider `CC(C)(C)c1ccc(CN2N=Nc3ccccc3S2(=O)=O)cc1`, for which the DAPI nuclei signal change (viability), lower = more cytotoxic is -41.6%. To `Cc1ccc(N2C(=O)C3CC(c4ccccc4)=C4C5C=CC(C6C(=O)N(c7ccc(C)cc7C)C(=O)C56)C4C3C2=O)c(C)c1` (stereo not given) belongs -5.52%; to `CC(C)(C)c1cc(NCc2ccccn2)n2ncc(-c3ccc(Cl)cc3)c2n1`, 94.3%. In the case of `COC(=O)c1c(NC(NC(=O)C(C)(C)C)C(Cl)(Cl)Cl)sc2c1CCC2` (stereo not given), the DAPI nuclei signal change (viability), lower = more cytotoxic came out at 8.35%. As for `Nc1c(C(=O)Nc2ccccc2)c2nc3ccccc3nc2n1-c1ccc(O)cc1`, the DAPI nuclei signal change (viability), lower = more cytotoxic worked out at 16.4%.

With `CC(C)c1ccc(Nc2nc(N3CCOCC3)nc(N3CCOCC3)n2)cc1`, the DAPI nuclei signal change (viability), lower = more cytotoxic was -16.7%. On to `COc1ccc(-c2ccc3[nH]c4c(c3c2)CCN2C[C@@H]([C@H](C)OC(=O)Nc3cc(Cl)cc(Cl)c3)[C@@H](N(C)C(=O)Nc3cc(Cl)cc(Cl)c3)C[C@@H]42)cc1`, for which the DAPI nuclei signal change (viability), lower = more cytotoxic came out at 6.14%. To `Cc1cccc(NC(=O)c2nc[nH]c2C(=O)NCCCCCCNC(=O)c2[nH]cnc2C(=O)Nc2cccc(C)c2)c1` belongs -18.7%. In the case of `COc1ccc(C(=O)Nc2ccc(-c3nnn(CC(=O)NCc4ccco4)n3)cc2)cc1`, the DAPI nuclei signal change (viability), lower = more cytotoxic was -14.2%. With `Cc1cc(C(=O)CSc2nnc(NCc3ccccc3)s2)c(C)n1C`, the DAPI nuclei signal change (viability), lower = more cytotoxic is -23.1%. For `CCCCCc1cc(=O)oc2c(C(CCN3CCCC(C)C3)c3ccc(N(C)C)cc3)c(OC)cc(OC)c12` (stereo not given), the DAPI nuclei signal change (viability), lower = more cytotoxic was -23.9%. For the compound `C[C@H](CO)N1C[C@H](C)[C@H](CN(C)S(=O)(=O)c2ccc(Cl)cc2)OCc2ccccc2-c2c(n(C)c3ccccc23)C1=O`, the DAPI nuclei signal change (viability), lower = more cytotoxic was -1.12%.

Regarding `COc1ccccc1C=NN=C(NN=Cc1ccccc1OC)NN=Cc1ccccc1OC`, the DAPI nuclei signal change (viability), lower = more cytotoxic was -24.1%. With `CCOC(=O)C1CCN(C(=O)C2(NC(=O)Nc3ccccc3Cl)CCCCC2)CC1`, the DAPI nuclei signal change (viability), lower = more cytotoxic was 3.87%. In the case of `CCc1cc2c3c(c1)C1(C(=O)N3C(C)(C)C=C2C)C(C#N)=C(N)Oc2[nH]c(=O)[nH]c(=O)c21` (stereo not given) it was -31.3%. Take `O=C(CCl)Nc1cc2[nH]c(=O)[nH]c2cc1Br`: the DAPI nuclei signal change (viability), lower = more cytotoxic was -30%.

In the case of `COc1ccccc1C(C[N+](=O)[O-])c1c(N)n(C)c(=O)n(C)c1=O` (stereo not given), the DAPI nuclei signal change (viability), lower = more cytotoxic is -38.5%. Regarding `Cc1ccc(NC(=O)CSc2nnnn2-c2ccc3c(c2)OCO3)cc1C`, the DAPI nuclei signal change (viability), lower = more cytotoxic is -15%. On to `CCOC(=O)c1c(CSC(=N)N)n(-c2ccccc2)c2cc(Br)c(OC(C)=O)cc12`, for which the DAPI nuclei signal change (viability), lower = more cytotoxic is -27.6%. Consider `O=C(C[C@H]1C[C@H](C(=O)N2CCOCC2)[C@@]2(CCC3CCCC3)c3[nH]c4cc(-c5ccco5)ccc4c3CCN2C1=O)NCC12CC3CC(CC(C3)C1)C2`, for which the DAPI nuclei signal change (viability), lower = more cytotoxic amounted to 18.1%. As for `COc1cc2c(cc1[N+](=O)[O-])-c1ccc([N+](=O)[O-])cc1C2=NNC(N)=S`, the DAPI nuclei signal change (viability), lower = more cytotoxic was -18.5%. In the case of `O=C(OCc1ccc(Br)cc1)c1cc([N+](=O)[O-])ccc1N1CCOCC1` it was -35.9%; in that of `CCCCCOc1ccc(Br)cc1/C(C)=N/NC1=NCCN1`, -6.78%; in that of `COc1ccc2c(c1)c(CC(=O)Nc1ccc(C)cc1)c(C)n2C(=O)c1ccc(Cl)cc1`, -10.7%.

As to `CC1(C)CC(=O)C=C(C#CC2(O)CCCCC2)C1`, the DAPI nuclei signal change (viability), lower = more cytotoxic was -34.6%. Turning to `CC(C)(C)NC(=O)C[C@H]1C[C@H](C(=O)N2CCCCC2)[C@@]2(CCc3ccccc3)c3[nH]c4ccc(Cl)cc4c3CCN2C1=O`, the DAPI nuclei signal change (viability), lower = more cytotoxic is -1.44%. On to `Oc1ccc(C=NNc2ccccn2)c(O)c1`, for which the DAPI nuclei signal change (viability), lower = more cytotoxic is -22.6%. In the case of `CCN1C(=O)[C@H]2[C@@H](c3ccc(-c4ccccc4)c(OC)c3)N[C@@](CC(C)C)(C(=O)OC)[C@H]2C1=O` it was -11.4%. On to `CCCCCc1cc(=O)oc2c(C(CCN3CCCC(C)C3)c3ccc4c(c3)OCO4)c(OC)cc(OC)c12` (stereo not given), for which the DAPI nuclei signal change (viability), lower = more cytotoxic is -43.7%. In the case of `COc1cc(NC(=O)c2csc(N)n2)cc(C(=O)Nc2cccc(C(F)(F)F)c2)c1`, the DAPI nuclei signal change (viability), lower = more cytotoxic is -10.1%.

For the compound `CCCCCc1cc(=O)oc2c(C(CCN3CCCC(C)C3)c3ccc(OC)cc3)c(OC)cc(OC)c12` (stereo not given), the DAPI nuclei signal change (viability), lower = more cytotoxic is 18.7%. `N#Cc1c(N)[nH]c2ccc(Sc3ccccc3)cc12`: the DAPI nuclei signal change (viability), lower = more cytotoxic was -32.8%. Consider `CC1(C)Cc2c(C#N)c(SCC(=O)c3ccccc3)nc(N3CCOCC3)c2CS1`, for which the DAPI nuclei signal change (viability), lower = more cytotoxic is -10.1%. For the compound `Cc1ccc(-n2ncc(-c3nnc(SCC(=O)NC4CCCC4)o3)c2N)cc1C`, the DAPI nuclei signal change (viability), lower = more cytotoxic was 3.44%. Consider `COc1ccccc1-c1cc(C(F)(F)F)nc(S(=O)(=O)CCCC(=O)N2CCCCC2C)n1` (stereo not given), for which the DAPI nuclei signal change (viability), lower = more cytotoxic is -42%. As for `Cc1ccc(NC(=O)c2ccc(N/N=C/c3cccc(O)c3)c([N+](=O)[O-])c2)cc1`, the DAPI nuclei signal change (viability), lower = more cytotoxic is -40.2%.

In the case of `COc1ccc(-c2sc3cc4c(cc3c2C#CC2(N)CCCCC2)OCO4)cc1`, the DAPI nuclei signal change (viability), lower = more cytotoxic amounted to 13.7%. As for `CC1CC(C)CN(C(=O)c2ccc3c(c2NCCO)C(=O)c2ccccc2C3=O)C1` (stereo not given), the DAPI nuclei signal change (viability), lower = more cytotoxic was -9.94%.

Regarding `Cc1cc(NC(=O)c2cc(-c3ccncc3)nc3c(C)cccc23)no1`, the DAPI nuclei signal change (viability), lower = more cytotoxic is -27.2%.

`O=Nc1ccc(O)c2ncccc12`: the DAPI nuclei signal change (viability), lower = more cytotoxic is -19.7%. As to `COc1cccc(/C=N/Nc2cc(N3CCOCC3)ncn2)c1O`, the DAPI nuclei signal change (viability), lower = more cytotoxic is -18.8%. Consider `Cc1ccc(Oc2ccc(S(=O)(=O)N3CCOCC3)cc2C(N)=O)c(-n2nc3ccccc3n2)c1`, for which the DAPI nuclei signal change (viability), lower = more cytotoxic was -29.9%. On to `CCCN1C(=O)/C(=C2\SC(N3CCCCC3)=NC2=O)c2ccccc21`, for which the DAPI nuclei signal change (viability), lower = more cytotoxic was -5.99%. For `COc1cccc(-c2nnc(SCC(=O)Nc3cc(C)ccc3OC)n2N)c1`, the DAPI nuclei signal change (viability), lower = more cytotoxic is -3.86%.
